Assay results as given in the supplement of paper PMC8728848.
The list shows a part of the results.

Experiments:
Assay in all cases: glycan array binding signal (z-score within array); higher = stronger binding
Conditions in all cases: glycan notation: IUPAC condensed, linker removed
[1] = target: Fuc(a1-2)[Gal(a1-3)]Gal(b1-3)GlcNAc(b1-3)GalNAc
In short: (§1)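 Arrays were curated from the Consortium for Functional Glycomics database, 3228 in total, and kept only where the protein sequence was available. Binding is expressed as a within-array Z-score. This score was averaged across arrays of the same protein sequence at different concentrations or buffers and across linkers, and negative values can be read as non-binding.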

[2] = target: Fuc(a1-2)[Gal(a1-3)]Gal(b1-3)GlcNAc(b1-6)GalNAc
In short: as §1

[3] = target: Fuc(a1-2)[Gal(a1-3)]Gal(b1-4)Glc
In short: as §1

[4] = target: Fuc(a1-2)[Gal(a1-3)]Gal(b1-4)GlcNAc
In short: as §1

[5] = target: Fuc(a1-2)[Gal(a1-3)]Gal(b1-4)GlcNAc(b1-2)Man
In short: as §1

[6] = target: Fuc(a1-2)[Gal(a1-3)]Gal(b1-4)GlcNAc(b1-2)Man(a1-3)[Fuc(a1-2)[Gal(a1-3)]Gal(b1-4)GlcNAc(b1-2)Man(a1-6)]Man(b1-4)GlcNAc(b1-4)GlcNAc
In short: as §1

[7] = target: Fuc(a1-2)[Gal(a1-3)]Gal(b1-4)GlcNAc(b1-2)Man(a1-3)[Fuc(a1-2)[Gal(a1-3)]Gal(b1-4)GlcNAc(b1-2)Man(a1-6)]Man(b1-4)GlcNAc(b1-4)[Fuc(a1-6)]GlcNAc
In short: as §1

[8] = target: Fuc(a1-2)[Gal(a1-3)]Gal(b1-4)GlcNAc(b1-3)GalNAc
In short: as §1

[9] = target: Fuc(a1-2)[Gal(a1-3)]Gal(b1-4)GlcNAc(b1-6)GalNAc
In short: as §1

[10] = target: Fuc(a1-2)[Gal(a1-3)]Gal(b1-4)[Fuc(a1-3)]Glc
In short: as §1

[11] = target: Fuc(a1-2)[Gal(a1-3)]Gal(b1-4)[Fuc(a1-3)]GlcNAc
In short: as §1

[12] = target: Fuc(a1-2)[Gal(a1-3)]Gal(b1-4)[Fuc(a1-3)]GlcNAc(b1-3)GalNAc
In short: as §1

[13] = target: Fuc(a1-2)[Gal(a1-4)]Gal(b1-4)GlcNAc
In short: as §1

[14] = target: Fuc(a1-2)[GalNAc(a1-3)]Gal
In short: as §1

[15] = target: Fuc(a1-2)[GalNAc(a1-3)]Gal(b1-3)GalNAc(a1-3)[Fuc(a1-2)]Gal(b1-4)GlcNAc
In short: as §1

[16] = target: Fuc(a1-2)[GalNAc(a1-3)]Gal(b1-3)GalNAc(b1-3)Gal(a1-4)Gal(b1-4)Glc
In short: as §1

[17] = target: Fuc(a1-2)[GalNAc(a1-3)]Gal(b1-3)GlcNAc
In short: as §1

[18] = target: Fuc(a1-2)[GalNAc(a1-3)]Gal(b1-3)GlcNAc(b1-2)Man(a1-3)[Fuc(a1-2)[GalNAc(a1-3)]Gal(b1-3)GlcNAc(b1-2)Man(a1-6)]Man(b1-4)GlcNAc(b1-4)GlcNAc
In short: as §1

[19] = target: Fuc(a1-2)[GalNAc(a1-3)]Gal(b1-3)GlcNAc(b1-2)Man(a1-3)[Fuc(a1-2)[GalNAc(a1-3)]Gal(b1-3)GlcNAc(b1-2)Man(a1-6)]Man(b1-4)GlcNAc(b1-4)[Fuc(a1-6)]GlcNAc
In short: as §1

[20] = target: Fuc(a1-2)[GalNAc(a1-3)]Gal(b1-3)GlcNAc(b1-3)GalNAc
In short: as §1

[21] = target: Fuc(a1-2)[GalNAc(a1-3)]Gal(b1-3)GlcNAc(b1-6)GalNAc
In short: as §1

[22] = target: Fuc(a1-2)[GalNAc(a1-3)]Gal(b1-4)Glc
In short: as §1

[23] = target: Fuc(a1-2)[GalNAc(a1-3)]Gal(b1-4)GlcNAc
In short: as §1

[24] = target: Fuc(a1-2)[GalNAc(a1-3)]Gal(b1-4)GlcNAc(b1-2)Man
In short: as §1

[25] = target: Fuc(a1-2)[GalNAc(a1-3)]Gal(b1-4)GlcNAc(b1-2)Man(a1-3)[Fuc(a1-2)[GalNAc(a1-3)]Gal(b1-4)GlcNAc(b1-2)Man(a1-6)]Man(b1-4)GlcNAc(b1-4)GlcNAc
In short: as §1

[26] = target: Fuc(a1-2)[GalNAc(a1-3)]Gal(b1-4)GlcNAc(b1-2)Man(a1-3)[Fuc(a1-2)[GalNAc(a1-3)]Gal(b1-4)GlcNAc(b1-2)Man(a1-6)]Man(b1-4)GlcNAc(b1-4)[Fuc(a1-6)]GlcNAc
In short: as §1

[27] = target: Fuc(a1-2)[GalNAc(a1-3)]Gal(b1-4)GlcNAc(b1-2)Man(a1-3)[GalNAc(a1-3)[Fuc(a1-2)]Gal(b1-4)GlcNAc(b1-2)Man(a1-6)]Man(b1-4)GlcNAc(b1-4)GlcNAc
In short: as §1

[28] = target: Fuc(a1-2)[GalNAc(a1-3)]Gal(b1-4)GlcNAc(b1-3)Gal(b1-4)GlcNAc
In short: as §1

[29] = target: Fuc(a1-2)[GalNAc(a1-3)]Gal(b1-4)GlcNAc(b1-3)Gal(b1-4)GlcNAc(b1-3)Gal(b1-4)GlcNAc
In short: as §1

[30] = target: Fuc(a1-2)[GalNAc(a1-3)]Gal(b1-4)GlcNAc(b1-3)GalNAc
In short: as §1

[31] = target: Fuc(a1-2)[GalNAc(a1-3)]Gal(b1-4)GlcNAc(b1-3)[Fuc(a1-2)[GalNAc(a1-3)]Gal(b1-4)GlcNAc(b1-6)]GalNAc
In short: as §1

[32] = target: Fuc(a1-2)[GalNAc(a1-3)]Gal(b1-4)GlcNAc(b1-6)GalNAc
In short: as §1

[33] = target: Fuc(a1-2)[GalNAc(a1-3)]Gal(b1-4)[Fuc(a1-3)]GlcNAc
In short: as §1

[34] = target: Fuc(a1-2)[GalNAc(a1-3)]Gal(b1-4)[Fuc(a1-3)]GlcNAc(b1-3)GalNAc
In short: as §1

[35] = target: Fuc(a1-2)[GalNAc(a1-4)]Gal(b1-4)GlcNAc
In short: as §1

[36] = target: Fuc(a1-2)[GalNAc(b1-3)]Gal
In short: as §1

Fuc(a1-3)GlcNAc = target: Fuc(a1-3)GlcNAc
In short: as §1

[37] = target: Fuc(a1-3)[Gal(b1-4)]Glc6S
In short: as §1

[38] = target: Fuc(a1-3)[Gal(b1-4)]GlcNAc
In short: as §1

[39] = target: Fuc(a1-3)[Gal(b1-4)]GlcNAc(b1-2)Man
In short: as §1

[40] = target: Fuc(a1-3)[Gal(b1-4)]GlcNAc(b1-2)Man(a1-3)[Fuc(a1-3)[Gal(b1-4)]GlcNAc(b1-2)Man(a1-6)]Man(b1-4)GlcNAc(b1-4)GlcNAc
In short: as §1

[41] = target: Fuc(a1-3)[Gal(b1-4)]GlcNAc(b1-2)Man(a1-3)[Fuc(a1-3)[Gal(b1-4)]GlcNAc(b1-2)Man(a1-6)]Man(b1-4)GlcNAc(b1-4)[Fuc(a1-6)]GlcNAc
In short: as §1

[42] = target: Fuc(a1-3)[Gal(b1-4)]GlcNAc(b1-2)Man(a1-6)[Gal(b1-4)GlcNAc(b1-2)Man(a1-3)]Man(b1-4)GlcNAc(b1-4)GlcNAc
In short: as §1

[43] = target: Fuc(a1-3)[Gal(b1-4)]GlcNAc(b1-3)Gal(b1-3)[Fuc(a1-4)]GlcNAc
In short: as §1

[44] = target: Fuc(a1-3)[Gal(b1-4)]GlcNAc(b1-3)Gal(b1-4)[Fuc(a1-3)]GlcNAc
In short: as §1

[45] = target: Fuc(a1-3)[Gal(b1-4)]GlcNAc(b1-3)Gal(b1-4)[Fuc(a1-3)]GlcNAc(b1-3)Gal(b1-4)[Fuc(a1-3)]GlcNAc
In short: as §1

[46] = target: Fuc(a1-3)[Gal(b1-4)]GlcNAc(b1-3)GalNAc
In short: as §1

[47] = target: Fuc(a1-3)[Gal(b1-4)]GlcNAc(b1-4)Gal(b1-4)[Fuc(a1-3)]GlcNAc
In short: as §1

[48] = target: Fuc(a1-3)[Gal(b1-4)]GlcNAc(b1-4)Gal(b1-4)[Fuc(a1-3)]GlcNAc(b1-4)Gal(b1-4)[Fuc(a1-3)]GlcNAc
In short: as §1

[49] = target: Fuc(a1-3)[Gal(b1-4)]GlcNAc(b1-6)GalNAc
In short: as §1

[50] = target: Fuc(a1-3)[Gal(b1-4)]GlcNAc(b1-6)[Gal(b1-3)GlcNAc(b1-3)]Gal(b1-4)Glc
In short: as §1

[51] = target: Fuc(a1-3)[Gal(b1-4)]GlcNAc6S
In short: as §1

[52] = target: Fuc(a1-3)[Gal3S(b1-4)]Glc
In short: as §1

[53] = target: Fuc(a1-3)[Gal3S(b1-4)]Glc6S
In short: as §1

[54] = target: Fuc(a1-3)[Gal3S(b1-4)]GlcNAc
In short: as §1

[55] = target: Fuc(a1-3)[Gal3S(b1-4)]GlcNAc6S
In short: as §1

[56] = target: Fuc(a1-3)[GalNAc(b1-4)]GlcNAc
In short: as §1

[57] = target: Fuc(a1-3)[GalNAc(b1-4)]GlcNAc6S
In short: as §1

[58] = target: Fuc(a1-3)[Neu5Ac(a2-3)]Gal(b1-4)GlcNAc(b1-3)GalNAc
In short: as §1

Fuc(a1-4)GlcNAc = target: Fuc(a1-4)GlcNAc
In short: as §1

B1: HPA (Helix pomatia), Q2F1K8 (protein)
chain: MQAFYSGLLLLCVVAFAAAQRVQSGKIDCGNDAGWAKVPSDDPGRDNTRELAKNITFASPYCRPPVVLLSITQLDVEQSQNLRVIARLYSVSPTGFKASCYTWHNTKVYSMSISWISIENY
- glycan array binding signal (z-score) [1]: -0.113
- glycan array binding signal (z-score) [2]: -0.164
- glycan array binding signal (z-score) [3]: -0.333
- glycan array binding signal (z-score) [4]: -0.193
- glycan array binding signal (z-score) [5]: -0.241
- glycan array binding signal (z-score) [6]: -0.176
- glycan array binding signal (z-score) [7]: -0.122
- glycan array binding signal (z-score) [8]: 0.168
- glycan array binding signal (z-score) [9]: -0.357
- glycan array binding signal (z-score) [10]: -0.172
- glycan array binding signal (z-score) [11]: -0.009
- glycan array binding signal (z-score) [12]: 0.007
- glycan array binding signal (z-score) [13]: -0.138
- glycan array binding signal (z-score) [14]: 1.96
- glycan array binding signal (z-score) [15]: 2.22
- glycan array binding signal (z-score) [16]: 2.62
- glycan array binding signal (z-score) [17]: 1.99
- glycan array binding signal (z-score) [18]: 1.88
- glycan array binding signal (z-score) [19]: 1.22
- glycan array binding signal (z-score) [20]: 0.89
- glycan array binding signal (z-score) [21]: 1.32
- glycan array binding signal (z-score) [22]: 1.62
- glycan array binding signal (z-score) [23]: 1.71
- glycan array binding signal (z-score) [24]: 2.55
- glycan array binding signal (z-score) [25]: 3.07
- glycan array binding signal (z-score) [26]: 1.34
- glycan array binding signal (z-score) [27]: 1.09
- glycan array binding signal (z-score) [28]: 2.66
- glycan array binding signal (z-score) [29]: 3.15
- glycan array binding signal (z-score) [30]: 1.45
- glycan array binding signal (z-score) [31]: 2.1
- glycan array binding signal (z-score) [32]: 1.69
- glycan array binding signal (z-score) [33]: 2.43
- glycan array binding signal (z-score) [34]: 0.306
- glycan array binding signal (z-score) [35]: 2.81
- glycan array binding signal (z-score) [36]: 0.461
- glycan array binding signal (z-score) (Fuc(a1-3)GlcNAc): -0.216
- glycan array binding signal (z-score) [37]: 0.244
- glycan array binding signal (z-score) [38]: -0.246
- glycan array binding signal (z-score) [39]: -0.096
- glycan array binding signal (z-score) [40]: -0.126
- glycan array binding signal (z-score) [41]: 0.051
- glycan array binding signal (z-score) [42]: -0.969
- glycan array binding signal (z-score) [43]: 0.004
- glycan array binding signal (z-score) [44]: -0.242
- glycan array binding signal (z-score) [45]: -0.246
- glycan array binding signal (z-score) [46]: 0.232
- glycan array binding signal (z-score) [47]: -0.17
- glycan array binding signal (z-score) [48]: -0.09
- glycan array binding signal (z-score) [49]: -0.07
- glycan array binding signal (z-score) [50]: -0.163
- glycan array binding signal (z-score) [51]: 0.063
- glycan array binding signal (z-score) [52]: -0.133
- glycan array binding signal (z-score) [53]: -0.93
- glycan array binding signal (z-score) [54]: -0.184
- glycan array binding signal (z-score) [55]: -0.057
- glycan array binding signal (z-score) [56]: -0.145
- glycan array binding signal (z-score) [57]: -0.284
- glycan array binding signal (z-score) [58]: 4.26
- glycan array binding signal (z-score) (Fuc(a1-4)GlcNAc): -0.081
